In all, about 48,000 compounds went through this assay and about 550 (1.1%) were called active. Inconclusive results (about 4%) are left out. Cut-off read from the data, not from the text of the source: active = potency below about 15 µM; inconclusive = mostly about 16 µM to 33 µM; inactive = weaker than that. The list shows a part of the results.
molecular target: Lysosomal acid glucosylceramidase (Homo sapiens) (UniProt P04062); experiment: Glucocerebrosidase; conditions: purified enzyme, resorufin glucoside fluorescence (screen aimed at inhibitors), 20 min;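 note: the screen sought inhibitors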
UniProt P04062, sequence (P04062 whole entry, looked up): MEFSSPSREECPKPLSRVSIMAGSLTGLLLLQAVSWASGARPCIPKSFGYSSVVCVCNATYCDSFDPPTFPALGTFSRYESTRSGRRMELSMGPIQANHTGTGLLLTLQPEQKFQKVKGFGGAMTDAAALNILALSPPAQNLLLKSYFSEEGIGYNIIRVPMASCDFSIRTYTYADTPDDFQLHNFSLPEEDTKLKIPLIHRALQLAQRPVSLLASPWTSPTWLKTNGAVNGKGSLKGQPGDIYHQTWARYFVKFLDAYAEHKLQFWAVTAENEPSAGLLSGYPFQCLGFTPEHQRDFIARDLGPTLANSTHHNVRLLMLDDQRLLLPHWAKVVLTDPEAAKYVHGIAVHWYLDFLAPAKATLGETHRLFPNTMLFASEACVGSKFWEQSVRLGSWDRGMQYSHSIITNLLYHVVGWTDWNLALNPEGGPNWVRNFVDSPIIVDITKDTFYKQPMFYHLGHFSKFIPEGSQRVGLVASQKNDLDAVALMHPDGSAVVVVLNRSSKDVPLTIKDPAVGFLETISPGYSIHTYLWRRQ
How it was run: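 Wild-type enzyme at 0.2 nM final in 50mM citric acid/KH2PO4, 10mM sodium taurocholate, 0.01% tween-20, pH 5.9, with resorufin beta-D-glucopyranoside at 30 uM final. Compounds titrated, 20 min at RT, red fluorescence read; AC50 from titration.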
Potency is the fitted concentration of half-maximal effect.

Potency, inactive:
CCCCCC1CC(=O)N(Cc2ccccc2)C(=O)N1 (centres undefined) > 76.9 µM
COc1ccc(NC(=O)CSc2nnc(-c3cccnc3)n2Cc2ccco2)c(OC)c1 > 76.9 µM
COc1ccc(Nc2cc(=O)n(C3CCCCC3)c(=O)[nH]2)c(OC)c1 > 76.9 µM
O=C(CSc1nnc(Cc2ccccc2)o1)NC1CC2CCC1C2 (centres undefined) > 76.9 µM
Cc1ccc(S(=O)(=O)N(CC(O)CN2CCCC2)c2ccccc2)cc1 (centres undefined) > 76.9 µM
CC(C)(C)Cc1nc(-c2ccccn2)no1 > 76.9 µM
COc1ccccc1NC(=O)CCC(=O)Nc1ccccc1OC > 76.9 µM
CCOc1ccc(-c2noc(-c3ccncc3)n2)cc1OCC > 76.9 µM
Brc1cccc(C2CC(c3ccccc3)n3nnnc3N2)c1 (centres undefined) > 76.9 µM
COc1ccc(/C(O)=C2/C(=O)C(=O)N(Cc3cccnc3)C2c2ccccn2)cc1 (centres undefined) > 76.9 µM
CCOC(=O)CCCn1c(C)nc(=O)c(-c2ccccc2)c1C > 76.9 µM
Cc1c(C(=O)O)oc2ccc(S(=O)(=O)NCCC3=CCCCC3)cc12 > 76.9 µM
Cc1cc(C)c2oc(=O)cc(CN3CCN(Cc4ccc5c(c4)OCO5)CC3)c2c1 > 76.9 µM
Cc1cc(F)c(F)c(C(=O)NC2CC2)c1Cl > 76.9 µM
CCOc1ccc(CCN2C(=O)CCC2(C)C(=O)NC(C)CC)cc1OCC (centres undefined) > 76.9 µM
O=S(=O)(Nc1cccc2cn[nH]c12)c1ccc(F)cc1 > 76.9 µM
CCS(=O)(=O)N1Cc2ccccc2CC1C(=O)Nc1nc2ccccc2[nH]1 (centres undefined) > 76.9 µM
Cc1ccccc1C(=O)/C=C1\NC(=O)CS1 > 76.9 µM
Cc1ccc(-n2c(SCC(=O)N3CCOCC3)nnc2-c2ccncc2)cc1 > 76.9 µM
O=c1c(-c2ccc3c(c2)OCCO3)coc2c(CN3CCOCC3)c(O)ccc12 > 76.9 µM
Cc1cccc(Cn2c(=O)n(Cc3ccco3)c(=O)c3ccccc32)c1 > 76.9 µM
Cc1ccccc1OCC(O)Cn1c(=N)n(CCN2CCOCC2)c2ccccc21 (centres undefined)
O=C(NCCCc1ccccc1)C1CC(=O)N(c2ccc3c(c2)OCCO3)C1 (centres undefined) > 76.9 µM
CS(=O)(=O)Nc1ccc(C(=O)NCC2CCCO2)cc1 (centres undefined) > 76.9 µM
O=C(O)c1ccc(-c2ccccc2C(F)(F)F)o1 > 76.9 µM
NC(=O)C1(N2CCCCC2)CCN(C(=O)CSc2nc(C(F)(F)F)cc(=O)[nH]2)CC1 > 76.9 µM
CCCCNC(=O)CCSc1nc2nc(C)cc(C)n2n1 > 76.9 µM
CCC(C)(C(=O)NC1CCCC1)N(C(=O)c1ccccn1)c1ccccc1 (centres undefined) > 76.9 µM
Cc1ccccc1NC(=O)Cn1c(=O)n(C)c2ccccc21 > 76.9 µM
CC1Oc2ccccc2N(CC(=O)Nc2ccc3c(c2)OCCO3)C1=O (centres undefined) > 76.9 µM
O=C(CSc1nnc(-c2cccnc2)n1C1CCCCC1)NC1CCCC1 > 76.9 µM
COc1cccc(C(=O)Cn2c(=O)n(CC3CCCO3)c(=O)c3ccccc32)c1 (centres undefined) > 76.9 µM
CCCN(CCC)c1nc(C)cc(C(C#N)c2nc3ccccc3o2)n1 (centres undefined) > 76.9 µM
CC(C)(Oc1ccc(Cl)cc1)C(=O)NCc1ccncc1 > 76.9 µM
Cc1c(C(=O)N(C)Cc2ccccc2)oc2ccc(S(=O)(=O)N3CCCC3)cc12 > 76.9 µM
Cc1nc2nc(COc3ccccc3)[nH]n2c(=O)c1Cc1ccccc1 > 76.9 µM
CC(C)CC(OC(=O)c1cccs1)C(=O)NCC1CCCO1 (centres undefined) > 76.9 µM
COc1ccccc1-n1cnc2cc(C(=O)NCc3ccco3)ccc21
O=C(CCS(=O)(=O)Cc1ccccc1F)NCCCN1CCCCC1 > 76.9 µM
COc1cc2c(C(=O)N3CCN(C)CC3)c(C)oc2cc1Br
N#CC1=C(N)OC2=C(C(=O)CCC2)C1Cc1ccccc1 (centres undefined) > 76.9 µM
CC1CCCCN1S(=O)(=O)c1ccc(S(=O)(=O)N2CCN(c3ccc(F)cc3)CC2)cc1 (centres undefined) > 76.9 µM
CC(=O)c1cccc(OCCN2C(=O)NC(C)(C)C2=O)c1 > 76.9 µM
Cc1ccc2c(c1)c1c(n2C)C(C(N)=O)CCC1 (centres undefined) > 76.9 µM
CCOC(=O)C1CCN(S(=O)(=O)c2cccc(-c3cn4cccnc4n3)c2)CC1 > 76.9 µM
Cc1ccc(C)c(S(=O)(=O)NCc2ccc(C(=O)N3CCN(C)CC3)cc2)c1 > 76.9 µM
O=C(Cc1ccsc1)NCC(c1ccco1)N1CCCCC1 (centres undefined) > 76.9 µM
COC(=O)c1ccccc1NC(=O)c1ccc(-c2ccccc2F)o1 > 76.9 µM
O=C(c1csc2c1CCCC2)N1CCN(c2ncccn2)CC1 > 76.9 µM
Nc1cnn(C2CCCO2)c(=O)n1 (centres undefined) > 76.9 µM
Cc1ccc(-c2cccc(NC(=O)C3C(C(=O)O)[C@@H]4C=C[C@H]3C4)c2)o1 (some centres undefined) > 76.9 µM
COc1ccc(/C(CC2(O)C(=O)Nc3ccccc32)=N\O)cc1 (centres undefined) > 76.9 µM
CCc1ccc2[nH]c(=O)c(CN(CCN(CC)CC)C(=O)Nc3ccccc3OC)cc2c1 > 76.9 µM
COc1ccc(CN(C(=O)c2cccs2)c2nccs2)cc1OC > 76.9 µM
COc1ccccc1NC(=O)CCC(=O)Nc1nnc(C(F)(F)F)s1 > 76.9 µM
O=C(c1ccc(F)cc1)C(CN1CCOCC1)c1ccccc1 (centres undefined) > 76.9 µM
COc1cc(NC(=O)CSc2nccc(C)n2)c(C(=O)O)cc1OC > 76.9 µM
CCOC(=O)c1c(-c2ccsc2)csc1N > 76.9 µM
Cc1ccc(-c2nc(C3CCCN(S(=O)(=O)c4ccc(C(F)(F)F)cc4)C3)no2)cc1 (centres undefined) > 76.9 µM

Source: PubChem BioAssay AID360 (National Center for Advancing Translational Sciences (NCATS), 2006)
